Laboratory results reported in the antibiotic and cytotoxicity screens of Wong et al. (2023).
This is one part of the list.

Columns and labels:
HSkMC = human skeletal muscle cells; assay: cytotoxicity call (relative viability < 0.9); details: 10 µM
S. aureus RN4220 = assay: growth inhibition call (relative growth <= 0.2); details: 50 µM

In the case of `CC(C)N1C[C@H](C)[C@@H](CN(C)Cc2ccc(Oc3ccccc3)cc2)Oc2c(cccc2-c2nn[nH]n2)C1=O`, the cytotoxicity call (HSkMC) is reported as “inactive” and the growth inhibition call (S. aureus RN4220) is reported as “inactive”.
`COc1ccccc1S(=O)(=O)N[C@H]1CC[C@H](CCNC(=O)C2CC2)O[C@@H]1CO` was tested, and the cytotoxicity call (HSkMC) was “inactive” and the growth inhibition call (S. aureus RN4220) was “inactive”.
In the case of `C[C@@H]1CCCCO[C@@H](CN(C)S(C)(=O)=O)[C@@H](C)CN([C@H](C)CO)C(=O)c2cc(NS(=O)(=O)c3cccs3)ccc2O1`, the cytotoxicity call (HSkMC) is reported as “inactive” and the growth inhibition call (S. aureus RN4220) is reported as “inactive”.
In the case of `CC(C)NCC(O)c1ccc(NS(C)(=O)=O)cc1.Cl` (stereo not drawn), the cytotoxicity call (HSkMC) is reported as “inactive” and the growth inhibition call (S. aureus RN4220) is reported as “inactive”.
`COc1ccc([Si](C)(C)[C@H]2[C@H](CCO)O[C@@]3(C(=O)N(Cc4ccc(N5C(=O)c6cccc7cccc5c67)cc4)c4ccccc43)[C@@H]2C)cc1` was tested, and the cytotoxicity call (HSkMC) was “inactive” and the growth inhibition call (S. aureus RN4220) was “inactive”.
`Cc1noc(C)c1NC(=O)Nc1ccc2c(c1)C(=O)N([C@H](C)CO)C[C@H](C)[C@@H](CN(C)CC1CCCCC1)OCCCC[C@H](C)O2` was tested, and the cytotoxicity call (HSkMC) was “inactive” and the growth inhibition call (S. aureus RN4220) was “inactive”.
With `C[C@@H]1CCCCO[C@@H](CN(C)C)[C@H](C)CN([C@H](C)CO)C(=O)c2cc(NC(=O)Nc3ccc(C(F)(F)F)cc3)ccc2O1` the cytotoxicity call (HSkMC) was “inactive” and the growth inhibition call (S. aureus RN4220) was “inactive”.
`CN1CCN(C(=O)C[C@@H]2CC[C@H]3[C@@H](COC[C@@H](O)CN3S(=O)(=O)c3cccc(Cl)c3)O2)CC1` was tested, and the cytotoxicity call (HSkMC) was “inactive” and the growth inhibition call (S. aureus RN4220) was “inactive”.
With `C[C@@H]1CN([C@H](C)CO)C(=O)c2cc(NC(=O)Nc3ccc4c(c3)OCO4)ccc2O[C@@H]1CN(C)S(C)(=O)=O` the cytotoxicity call (HSkMC) was “inactive” and the growth inhibition call (S. aureus RN4220) was “inactive”.
With `CC(=O)NCC(=O)N1Cc2nccn2C[C@H](Cn2nc(C)nc2C)C1` the cytotoxicity call (HSkMC) was “inactive” and the growth inhibition call (S. aureus RN4220) was “inactive”.
`C#Cc1ccc([C@@H]2C=C(C(=O)N3CCN(Cc4ccc5c(c4)OCO5)CC3)O[C@H](OCC)[C@H]2CCCO)cc1` was tested, and the cytotoxicity call (HSkMC) was “inactive” and the growth inhibition call (S. aureus RN4220) was “inactive”.
In the case of `C[C@@H]1CN([C@H](C)CO)C(=O)c2cc(C#Cc3cccc(F)c3)cnc2O[C@@H]1CN(C)Cc1ccccn1`, the cytotoxicity call (HSkMC) is reported as “inactive” and the growth inhibition call (S. aureus RN4220) is reported as “inactive”.
`O=C(O)Cn1nc2ccccc2n1` was tested, and the cytotoxicity call (HSkMC) was “inactive” and the growth inhibition call (S. aureus RN4220) was “inactive”.
In the case of `CC(NCCc1ccc(O)cc1)C(O)c1ccc(O)cc1.Cl` (stereo not drawn), the cytotoxicity call (HSkMC) is reported as “inactive” and the growth inhibition call (S. aureus RN4220) is reported as “inactive”.
For `COc1ncc(-c2ccc3c(Nc4cc(Oc5cc(F)cc(F)c5)cc(C(=O)O)c4)c(S(=O)(=O)NC4CC4)cnc3c2)c(OC)n1`, the cytotoxicity call (HSkMC) was “inactive” and the growth inhibition call (S. aureus RN4220) was “active”.
For `C[C@H](CO)N1C[C@H](C)[C@H](CN(C)C(=O)CN(C)C)Oc2cc(C#Cc3ccccc3)ccc2S1(=O)=O`, the cytotoxicity call (HSkMC) was “inactive” and the growth inhibition call (S. aureus RN4220) was “active”.
For `NC1=CC(=O)c2ccccc2C1=O`, the cytotoxicity call (HSkMC) was “inactive” and the growth inhibition call (S. aureus RN4220) was “inactive”.
In the case of `O=C(C[C@@H]1C[C@H]2c3cc(NC(=O)c4cccnc4)ccc3O[C@H]2[C@@H](CO)O1)NCc1cc(F)ccc1F`, the cytotoxicity call (HSkMC) is reported as “inactive” and the growth inhibition call (S. aureus RN4220) is reported as “inactive”.
`C[C@@H]1CN([C@H](C)CO)C(=O)c2cccc(NC(=O)Nc3ccc4c(c3)OCO4)c2O[C@@H]1CN(C)Cc1ccc(Oc2ccccc2)cc1` was tested, and the cytotoxicity call (HSkMC) was “inactive” and the growth inhibition call (S. aureus RN4220) was “inactive”.
For `C[C@H](CO)N1C[C@H](C)[C@H](CN(C)Cc2ccc3c(c2)OCO3)OCCCC[C@H](C)Oc2ccc(NC(=O)c3ccccc3)cc2C1=O`, the cytotoxicity call (HSkMC) was “inactive” and the growth inhibition call (S. aureus RN4220) was “inactive”.
`C[C@H]1CN([C@@H](C)CO)C(=O)c2cc(NC(=O)Cc3ccccc3)ccc2O[C@@H]1CN(C)C(=O)Nc1ccc(C(F)(F)F)cc1` was tested, and the cytotoxicity call (HSkMC) was “inactive” and the growth inhibition call (S. aureus RN4220) was “inactive”.
For `O=C(C[C@H]1CC[C@@H]2[C@H](COC[C@H](O)CN2C(=O)c2ccc3c(c2)OCO3)O1)NCCN1CCCCC1`, the cytotoxicity call (HSkMC) was “inactive” and the growth inhibition call (S. aureus RN4220) was “inactive”.
In the case of `C[C@H]1CN([C@@H](C)CO)C(=O)c2cc(NS(C)(=O)=O)ccc2O[C@@H]1CN(C)C(=O)Nc1ccc(C(F)(F)F)cc1`, the cytotoxicity call (HSkMC) is reported as “inactive” and the growth inhibition call (S. aureus RN4220) is reported as “inactive”.
For `Cc1ccc(S(=O)(=O)N(C)C[C@@H]2OCCCC[C@@H](C)Oc3ccc(NC(=O)Nc4ccc(F)cc4)cc3C(=O)N([C@@H](C)CO)C[C@@H]2C)cc1`, the cytotoxicity call (HSkMC) was “inactive” and the growth inhibition call (S. aureus RN4220) was “inactive”.
`C[C@H](CO)N1C[C@H](C)[C@H](CN(C)Cc2ccc(C(F)(F)F)cc2)Oc2c(NC(=O)c3ccc(-c4nccs4)cc3)cccc2C1=O` was tested, and the cytotoxicity call (HSkMC) was “inactive” and the growth inhibition call (S. aureus RN4220) was “inactive”.
`O=C1NC(=O)[C@H]2[C@@H]1[C@H](c1ccccc1)N1[C@@H]3C(=O)NC(=O)[C@@H]3[C@H](c3ccccc3)N21` was tested, and the cytotoxicity call (HSkMC) was “inactive” and the growth inhibition call (S. aureus RN4220) was “inactive”.
`Cc1ccc(S[C@]2(C(=O)NCc3ccccc3)CC(=O)N(Cc3ccccc3C(F)(F)F)[C@@H]2c2ccc(CO)cc2I)cc1` was tested, and the cytotoxicity call (HSkMC) was “inactive” and the growth inhibition call (S. aureus RN4220) was “inactive”.
With `O=C1CSCCN1` the cytotoxicity call (HSkMC) was “inactive” and the growth inhibition call (S. aureus RN4220) was “inactive”.
With `NC(=O)NCC#Cc1ccc2c(c1)[C@]1(C(=O)N2)[C@H](c2ccccc2OCCO)N2[C@H](c3ccccc3)[C@H](c3ccccc3)OC(=O)[C@H]2[C@@H]1C(=O)O` the cytotoxicity call (HSkMC) was “inactive” and the growth inhibition call (S. aureus RN4220) was “inactive”.
